What all share (assay): cell count relative to DMSO control; melanoma cells; higher = more viable cells
Holding throughout (conditions): library dose: standard library concentration; 72 h

Experiment [1] deals with A101D.
In experiment [2] the test system is A375.
In experiment [3] the test system is A2058.

This is one part of the list. Many values rest on one well or one pass, so single values are uncertain.
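Also: cells treated in 1,536-well plates, then fixed and DAPI-stained, with nuclei counted from automated high-throughput microscope images.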

Take `N#CC[C@H](C1CCCC1)n1cc(-c2ncnc3[nH]ccc23)cn1` [ruxolitinib] + Nc1ccn([C@@H]2O[C@H](CO)[C@@H](O)C2(F)F)c(=O)n1 [gemcitabine] (first compound 5 µM, partner dose 0.002 µM): the results for the cell count in experiment [1] and in experiment [2] were 83.5% and 104%, respectively.
In the case of `N#CC[C@H](C1CCCC1)n1cc(-c2ncnc3[nH]ccc23)cn1` [ruxolitinib] + C[C@@H]1CCN(C(=O)CC#N)C[C@@H]1N(C)c1ncnc2[nH]ccc12 [CP690550] (first compound 5 µM, partner dose 5 µM), the cell count was 115% in experiment [1], 85.7% in experiment [3] and 144% in experiment [2].
For `Cc1cc(Nc2cc(N3CCN(C)CC3)nc(Sc3ccc(NC(=O)C4CC4)cc3)n2)n[nH]1` [Tozasertib] + Cn1cncc1[C@@](N)(c1ccc(Cl)cc1)c1ccc2c(c1)c(-c1cccc(Cl)c1)cc(=O)n2C [tipifarnib] (first compound 0.03 µM, partner dose 0.05 µM), in that order: 94.8%, 85.8% and 110%.
Regarding `N#CC[C@H](C1CCCC1)n1cc(-c2ncnc3[nH]ccc23)cn1` [ruxolitinib] + Cc1cn(-c2cc(NC(=O)c3ccc(C)c(Nc4nccc(-c5cccnc5)n4)c3)cc(C(F)(F)F)c2)cn1 [nilotinib] (first compound 5 µM, partner dose 1 µM), the cell count in experiment [1] amounted to 130%; in experiment [3] it was 77.7%; in experiment [2] it was 154%.
The matching figures for `N#CC[C@H](C1CCCC1)n1cc(-c2ncnc3[nH]ccc23)cn1` [ruxolitinib] + Nc1ncn([C@H]2C[C@H](O)[C@@H](CO)O2)c(=O)n1 [decitabine] (first compound 5 µM, partner dose 0.5 µM): 89.8%, 65% and 111%.
The matching figures for `N#CC[C@H](C1CCCC1)n1cc(-c2ncnc3[nH]ccc23)cn1` [ruxolitinib] + C=CCn1c(=O)c2cnc(Nc3ccc(N4CCN(C)CC4)cc3)nc2n1-c1cccc(C(C)(C)O)n1 [MK1775] (first compound 5 µM, partner dose 0.1 µM): 66.9%, 68.7% and 71.1%.
For `CC[C@]1(O)C[C@H]2CN(CCc3c([nH]c4ccccc34)[C@@](C(=O)OC)(c3cc4c(cc3OC)N(C=O)[C@H]3[C@@](O)(C(=O)OC)[C@H](OC(C)=O)[C@]5(CC)C=CCN6CC[C@]43[C@@H]65)C2)C1` [vincristine] + C#Cc1cccc(Nc2ncnc3cc(OCCOC)c(OCCOC)cc23)c1 [erlotinib] (first compound 0.0005 µM, partner dose 4 µM), the cell count in experiment [1] was determined as 52%; in experiment [3], 13.2%; in experiment [2], 61.1%.
The matching figures for `CC[C@]1(O)C[C@H]2CN(CCc3c([nH]c4ccccc34)[C@@](C(=O)OC)(c3cc4c(cc3OC)N(C=O)[C@H]3[C@@](O)(C(=O)OC)[C@H](OC(C)=O)[C@]5(CC)C=CCN6CC[C@]43[C@@H]65)C2)C1` [vincristine] + CN(C)S(=O)(=O)c1ccc2c(c1)/C(=C/c1cc3c([nH]1)CCCC3)C(=O)N2 [SU6656] (first compound 0.0005 µM, partner dose 2 µM): 37%, 5.47% and 108%.
For `Cc1cc(Nc2cc(N3CCN(C)CC3)nc(Sc3ccc(NC(=O)C4CC4)cc3)n2)n[nH]1` [Tozasertib] + COc1ccc(C2=N[C@@H](c3ccc(Cl)cc3)[C@@H](c3ccc(Cl)cc3)N2C(=O)N2CCNC(=O)C2)c(OC(C)C)c1 [Nutlin-3] (first compound 0.03 µM, partner dose 0.5 µM), in that order: 77.1%, 78.8% and 75.8%.
The matching figures for `Cc1cc(Nc2cc(N3CCN(C)CC3)nc(Sc3ccc(NC(=O)C4CC4)cc3)n2)n[nH]1` [Tozasertib] + NC(=O)c1ccc(N(C(N)=O)c2c(F)cccc2F)nc1-c1ccc(F)cc1F [VX702] (first compound 0.03 µM, partner dose 2 µM): 90.5%, 72.8% and 100%.
Consider `Cc1cc(Nc2cc(N3CCN(C)CC3)nc(Sc3ccc(NC(=O)C4CC4)cc3)n2)n[nH]1` [Tozasertib] + O=C(O)[C@@H]1[O][Sb](=[O])([O][Sb]2(=[O])[O][C@H]([C@H](O)CO)[C@H](O)[C@H](C(=O)O)[O]2)[O][C@H]([C@H](O)CO)[C@@H]1O [stibogluconate] (first compound 0.03 µM, partner dose 10 µM), for which the cell count in experiment [1] was 95.2%; in experiment [3], 58.6%; in experiment [2], 95.5%.
The matching figures for `N#CC[C@H](C1CCCC1)n1cc(-c2ncnc3[nH]ccc23)cn1` [ruxolitinib] + Cc1nc(Nc2ncc(C(=O)Nc3c(C)cccc3Cl)s2)cc(N2CCN(CCO)CC2)n1 [dasatanib] (first compound 5 µM, partner dose 0.02 µM): 99%, 41.1% and 77.4%.
